# Assay results as given in the supplement of paper PMC8728848.
# The other results are listed elsewhere or left out.
# B1: PX9896A-bth-573-26-573 (Bacteroides thetaiotaomicron) (protein)
# chain: ETNNLKTKEDMYKYFGTSKSMLTHVYSYMPQGYQLFATSGGIFTEDRYSMRDCASDDGEFGAYADNIQNTNNGNWSPIKTYDDSWTLYRGIRAANSFIAEIAQVDFTRYEHDGQYTNWMKQLKYFPYEARVLRAHYFFELARRYGDIAMPLEVLTEEEANTIGKTPFSEVISFIVSECDDAANNLPDSYVNEPGAEIGRVTKGFAMAVKSKALLYAASKLHNPSMDTELWKKSAKAAIDIINTGLYSLDPQESANNLDSKEVVLMRINGDDSDFEMFNLPLRMTAGTRTSSLIPYSNYPSQNLVDAFETVNGYKVTLENTGWVCEDPAFDPQSPYENRDKRFYRAILANGMSFKDYTIETFKGGADDGIVSQGGSPTGYFLRKYIQEATSFEPGKEAVSKHHWVIYRYAETLLTYAESMVNAFNDVNYTDETYKYSALWAINEVRKNADMPLIPSMGKDEFMERLYNEWRVEFAFEDHRFWDVRRWKIADTTQRELYGVKIEKQADGTFNFYKNLYETRNWRDCMYLYPIPQSELYKNTNLNPQNTGW
# What was measured:
# Assay in all cases: glycan array binding signal (z-score within array); higher = stronger binding
# Details in all cases: glycan notation: IUPAC condensed, linker removed
# [1] = molecular target: Neu5Ac(a2-6)Gal(b1-4)GlcNAc(b1-2)Man(a1-3)[Man(a1-6)]Man(b1-4)GlcNAc(b1-4)GlcNAc
# Outline: (§1)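 The binding signal is a Z-score computed within each array and averaged over linkers. Arrays of the same protein sequence at different concentrations or buffers were also averaged together. Data originate from 3228 arrays in the Consortium for Functional Glycomics database, kept only where the protein sequence was available.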
# [2] = molecular target: Neu5Ac(a2-6)Gal(b1-4)GlcNAc(b1-2)Man(a1-3)[Neu5Ac(a2-3)Gal(b1-4)GlcNAc(b1-2)Man(a1-6)]Man(b1-4)GlcNAc(b1-4)GlcNAc
# Outline: as §1
# [3] = molecular target: Neu5Ac(a2-6)Gal(b1-4)GlcNAc(b1-2)Man(a1-3)[Neu5Ac(a2-6)Gal(b1-4)GlcNAc(b1-2)Man(a1-6)]Man(b1-4)GlcNAc(b1-4)GlcNAc
# Outline: as §1
# [4] = molecular target: Neu5Ac(a2-6)Gal(b1-4)GlcNAc(b1-2)Man(a1-3)[Neu5Ac(a2-6)Gal(b1-4)GlcNAc(b1-2)Man(a1-6)]Man(b1-4)GlcNAc(b1-4)[Fuc(a1-6)]GlcNAc
# Outline: as §1
# [5] = molecular target: Neu5Ac(a2-6)Gal(b1-4)GlcNAc(b1-2)Man(a1-6)Man(b1-4)GlcNAc(b1-4)GlcNAc
# Outline: as §1
# [6] = molecular target: Neu5Ac(a2-6)Gal(b1-4)GlcNAc(b1-2)Man(a1-6)[Gal(b1-4)GlcNAc(b1-2)Man(a1-3)]Man(b1-4)GlcNAc(b1-4)GlcNAc
# Outline: as §1
# [7] = molecular target: Neu5Ac(a2-6)Gal(b1-4)GlcNAc(b1-2)Man(a1-6)[GlcNAc(b1-2)Man(a1-3)]Man(b1-4)GlcNAc(b1-4)GlcNAc
# Outline: as §1
# [8] = molecular target: Neu5Ac(a2-6)Gal(b1-4)GlcNAc(b1-2)Man(a1-6)[Man(a1-3)]Man(b1-4)GlcNAc(b1-4)GlcNAc
# Outline: as §1
# [9] = molecular target: Neu5Ac(a2-6)Gal(b1-4)GlcNAc(b1-2)[Neu5Ac(a2-6)Gal(b1-4)GlcNAc(b1-4)]Man(a1-3)[GlcNAc(b1-4)][Neu5Ac(a2-6)Gal(b1-4)GlcNAc(b1-2)[Neu5Ac(a2-6)Gal(b1-4)GlcNAc(b1-6)]Man(a1-6)]Man(b1-4)GlcNAc(b1-4)GlcNAc
# Outline: as §1
# [10] = molecular target: Neu5Ac(a2-6)Gal(b1-4)GlcNAc(b1-2)[Neu5Ac(a2-6)Gal(b1-4)GlcNAc(b1-4)]Man(a1-3)[GlcNAc(b1-4)][Neu5Ac(a2-6)Gal(b1-4)GlcNAc(b1-4)Man(a1-6)]Man(b1-4)GlcNAc(b1-4)GlcNAc
# Outline: as §1
# [11] = molecular target: Neu5Ac(a2-6)Gal(b1-4)GlcNAc(b1-2)[Neu5Ac(a2-6)Gal(b1-4)GlcNAc(b1-6)]Man(a1-6)[Neu5Ac(a2-6)Gal(b1-4)GlcNAc(b1-2)Man(a1-3)][GlcNAc(b1-4)]Man(b1-4)GlcNAc(b1-4)GlcNAc
# Outline: as §1
# [12] = molecular target: Neu5Ac(a2-6)Gal(b1-4)GlcNAc(b1-3)Gal(b1-3)GlcNAc
# Outline: as §1
# [13] = molecular target: Neu5Ac(a2-6)Gal(b1-4)GlcNAc(b1-3)Gal(b1-4)GlcNAc
# Outline: as §1
# [14] = molecular target: Neu5Ac(a2-6)Gal(b1-4)GlcNAc(b1-3)Gal(b1-4)GlcNAc(b1-2)Man(a1-3)[Neu5Ac(a2-6)Gal(b1-4)GlcNAc(b1-3)Gal(b1-4)GlcNAc(b1-2)Man(a1-6)]GalNAc
# Outline: as §1
# [15] = molecular target: Neu5Ac(a2-6)Gal(b1-4)GlcNAc(b1-3)Gal(b1-4)GlcNAc(b1-3)Gal(b1-4)GlcNAc
# Outline: as §1
# [16] = molecular target: Neu5Ac(a2-6)Gal(b1-4)GlcNAc(b1-3)Gal(b1-4)GlcNAc(b1-3)Gal(b1-4)GlcNAc(b1-2)Man(a1-3)[Neu5Ac(a2-6)Gal(b1-4)GlcNAc(b1-3)Gal(b1-4)GlcNAc(b1-3)Gal(b1-4)GlcNAc(b1-2)Man(a1-6)]GalNAc
# Outline: as §1
# [17] = molecular target: Neu5Ac(a2-6)Gal(b1-4)GlcNAc(b1-3)Gal(b1-4)GlcNAc(b1-3)GalNAc
# Outline: as §1
# [18] = molecular target: Neu5Ac(a2-6)Gal(b1-4)GlcNAc(b1-3)Gal(b1-4)GlcNAc(b1-3)[Neu5Ac(a2-6)Gal(b1-4)GlcNAc(b1-3)Gal(b1-4)GlcNAc(b1-6)]GalNAc
# Outline: as §1
# [19] = molecular target: Neu5Ac(a2-6)Gal(b1-4)GlcNAc(b1-3)Gal(b1-4)GlcNAc(b1-6)[Gal(b1-3)]GalNAc
# Outline: as §1
# [20] = molecular target: Neu5Ac(a2-6)Gal(b1-4)GlcNAc(b1-3)Gal(b1-4)[Fuc(a1-3)]GlcNAc(b1-3)Gal(b1-4)[Fuc(a1-3)]GlcNAc
# Outline: as §1
# [21] = molecular target: Neu5Ac(a2-6)Gal(b1-4)GlcNAc(b1-3)GalNAc
# Outline: as §1
# [22] = molecular target: Neu5Ac(a2-6)Gal(b1-4)GlcNAc(b1-3)[Neu5Ac(a2-6)Gal(b1-4)GlcNAc(b1-6)]GalNAc
# Outline: as §1
# [23] = molecular target: Neu5Ac(a2-6)Gal(b1-4)GlcNAc(b1-6)GalNAc
# Outline: as §1
# [24] = molecular target: Neu5Ac(a2-6)Gal(b1-4)GlcNAc(b1-6)[Gal(b1-3)GlcNAc(b1-3)]Gal(b1-4)Glc
# Outline: as §1
# [25] = molecular target: Neu5Ac(a2-6)Gal(b1-4)GlcNAc(b1-6)[Gal(b1-3)]GalNAc
# Outline: as §1
# [26] = molecular target: Neu5Ac(a2-6)Gal(b1-4)GlcNAc6S
# Outline: as §1
# [27] = molecular target: Neu5Ac(a2-6)GalNAc
# Outline: as §1
# [28] = molecular target: Neu5Ac(a2-6)GalNAc(b1-4)GlcNAc
# Outline: as §1
# [29] = molecular target: Neu5Ac(a2-6)GalNAc(b1-4)GlcNAc6S
# Outline: as §1
# [30] = molecular target: Neu5Ac(a2-6)GlcNAc(b1-4)GlcNAc
# Outline: as §1
# [31] = molecular target: Neu5Ac(a2-6)GlcNAc(b1-4)GlcNAc(b1-4)GlcNAc
# Outline: as §1
binder,measurement,setting,value
B1,glycan array binding signal (z-score),[1],-0.944
same,glycan array binding signal (z-score),[2],-0.541
same,glycan array binding signal (z-score),[3],-0.137
same,glycan array binding signal (z-score),[4],-0.116
same,glycan array binding signal (z-score),[5],-0.365
same,glycan array binding signal (z-score),[6],0.191
same,glycan array binding signal (z-score),[7],-0.598
same,glycan array binding signal (z-score),[8],-0.33
same,glycan array binding signal (z-score),[9],-0.093
same,glycan array binding signal (z-score),[10],-0.234
same,glycan array binding signal (z-score),[11],-0.82
same,glycan array binding signal (z-score),[12],0.012
same,glycan array binding signal (z-score),[13],-0.431
same,glycan array binding signal (z-score),[14],0.147
same,glycan array binding signal (z-score),[15],-0.213
same,glycan array binding signal (z-score),[16],1.34
same,glycan array binding signal (z-score),[17],0.116
same,glycan array binding signal (z-score),[18],0.26
same,glycan array binding signal (z-score),[19],-0.751
same,glycan array binding signal (z-score),[20],0.205
same,glycan array binding signal (z-score),[21],0.363
same,glycan array binding signal (z-score),[22],-0.343
same,glycan array binding signal (z-score),[23],-0.549
same,glycan array binding signal (z-score),[24],-0.043
same,glycan array binding signal (z-score),[25],-0.133
same,glycan array binding signal (z-score),[26],0.076
same,glycan array binding signal (z-score),[27],-0.202
same,glycan array binding signal (z-score),[28],0.26
same,glycan array binding signal (z-score),[29],-0.474
same,glycan array binding signal (z-score),[30],-0.377
same,glycan array binding signal (z-score),[31],-0.369
